Consider 53 compounds from ChEMBL document CHEMBL4888484, “Replenishing the malaria drug discovery pipeline: Screening and hit evaluation of the MMV Hit Generation Library 1 (HGL1) against asexual blood stage Plasmodium falciparum ,using a nano luciferase reporter read-out” (2022).

Each structure is given as a SMILES string. About 540 (0.36%) of roughly 150,000 compounds showed an effect of 50% or more. The list shows a part of the results.

This test concerns Plasmodium falciparum. As to the kind of experiment: Primary screen in NF54 nanoGlo assay, in single point, at 2uM, 72h; a lower Z score goes with more inhibition. The test is classed as functional, Erythrocyte. The settings on record: timepoint 72 hour.
The term % Inhibition denotes the change of the read-out against control, counted positive when it falls. Turning to `CN(Cc1ccc(Br)c(F)c1)C(=O)C(C)(C)O`, the “% Inhibition” value is -2% and the Z score is recorded as 0.31.

As to `CCN1C[C@H](Nc2ncnc3sc(C)cc23)[C@@H](OC)C1`, the “% Inhibition” value is listed as -9% and the Z score is given as 1.14.

Take `O=C(NCC1CCCCC1)c1nnc(N2CCCCC2)c2ccccc12`: the “% Inhibition” value was -11% and the Z score is 1.36.

Consider `COc1cccc([C@H]2C[C@@H](C(F)(F)F)n3ncc(C(=O)Nc4cc(OC)c(Cl)cc4OC)c3N2)c1`, for which the “% Inhibition” value was -20% and the Z score is given as 2.69.

In the case of `CS(=O)(=O)N1CCC(C(=O)N(CC(F)(F)F)C2CCOCC2)CC1`, the “% Inhibition” value is given as 4% and the Z score is recorded as -0.5.

For `Cc1nnc(C(=O)N2CCC(CCN3CCOCC3)CC2)s1`, the “% Inhibition” value is given as 0% and the Z score was -0.05.

Consider `CC1(C)N=C(c2ccccc2)C(=O)N1CC(=O)N1CCN(c2ccccc2F)CC1`, for which the “% Inhibition” value is -3% and the Z score was found to be 0.41.

In the case of `CCc1ccc(C(=O)N(C(=O)c2ccc(CC)cc2)c2sc3c(c2C#N)CCC3)cc1`, the “% Inhibition” value stood at 33% and the Z score is -3.75.

Take `CN(C(=O)CC(C)(C)C)c1nc2ccccc2o1`: the “% Inhibition” value is on record as 16% and the Z score was -1.6.

Take `CN(CCNc1cc([C@H]2CCOC2)ncn1)Cc1ncc[nH]1`: the “% Inhibition” value is reported as -8% and the Z score came out at 1.47.

Consider `Cc1c(C(=O)O)sc2ncnc(NCc3ncc[nH]3)c12`, for which the “% Inhibition” value is given as 2% and the Z score is given as -0.21.

For the compound `CC(=O)N1CCC2(CC1)NN=C1C=CC(c3nc(C(C)(C)C)no3)=CN12`, the “% Inhibition” value is 31% and the Z score was -4.05.

In the case of `Cc1cccc(S(=O)(=O)CCCn2ccnc2C(C)C)c1`, the “% Inhibition” value was -8% and the Z score was 1.06.

Regarding `Nc1ccc(C(=O)N2C[C@@H]3CC[C@H]2CN(C(=O)C2CCC2)C3)cn1`, the “% Inhibition” value is reported as -21% and the Z score is reported as 2.3.

With `CCCn1ncc2[nH]c(-c3ccc(OC)c(F)c3)nc21`, the “% Inhibition” value was -7% and the Z score is 0.82.

In the case of `O=C(CCCc1cn[nH]c1)N[C@H]1CC[C@H]1NC1CCCCCC1`, the “% Inhibition” value is 10% and the Z score was -1.81.

Consider `NS(=O)(=O)C1CCN(C(=O)C2C3CCCC32)C1` (stereo unspecified), for which the “% Inhibition” value was -16% and the Z score was found to be 2.28.

`CS(=O)(=O)N(CCCN1CCOCC1)[C@H]1CCN(C(=O)CCC2CCCC2)C1`: the “% Inhibition” value is on record as -2% and the Z score came to 0.33.

For the compound `C1CCn2nnnc2[C@H](c2nc(C3CC3)n[nH]2)C1`, the “% Inhibition” value is -7% and the Z score came out at 1.19.

On to `COCc1cc(C[C@@H]2CC[C@H](O)[C@@H](CNC(=O)c3ccc4c(c3)OCO4)O2)no1`, for which the “% Inhibition” value is listed as 27% and the Z score was -3.12.

Turning to `COCc1cc(-c2cn(C[C@H](O)CO)nn2)ccc1OC`, the “% Inhibition” value is given as -4% and the Z score was 0.76.

With `Cn1nc(-c2cccnc2)cc1CNC(=O)c1ccc2ccccc2n1`, the “% Inhibition” value was 9% and the Z score was -1.13.

As to `CCOC(=O)c1c2c(n(NC(N)=O)c1C)C(=Cc1ccccc1)CC2`, the “% Inhibition” value is -15% and the Z score was determined as 2.16.

Consider `Cc1cc(C)c(-c2nc3cc(-n4cnnn4)ccc3[nH]2)c(C)c1CO`, for which the “% Inhibition” value is recorded as -1% and the Z score stood at 0.2.

Take `Cc1cnc(N2CC(C)OC(C3CC3)C2)s1` (stereo unspecified): the “% Inhibition” value was -9% and the Z score was found to be 0.83.

Take `COCCN1CCN(Cc2ccc(Cl)s2)[C@H]2CS(=O)(=O)C[C@H]21`: the “% Inhibition” value is -8% and the Z score is 1.1.

Take `COc1ccc(CN2C[C@H](C(=O)O)[C@@H](c3ccccc3OC)C2)cc1F`: the “% Inhibition” value is reported as -10% and the Z score came out at 1.39.

Consider `CCN(C(=O)C12CCC(C)(c3nc4ccccc4nc31)C2(C)C)c1ccccc1` (stereo unspecified), for which the “% Inhibition” value is -9% and the Z score was found to be 1.11.

Regarding `NC(=O)[C@@H]1CN(C(=O)c2c3c(nc4ccccc24)CCC3)CCO1`, the “% Inhibition” value is -11% and the Z score turned out to be 1.1.

Consider `CCCN(CC(=O)N(CCc1ccccc1)Cc1ccco1)C(=O)Cc1ccc(F)cc1`, for which the “% Inhibition” value is -15% and the Z score turned out to be 1.69.

Turning to `Cc1ccc(Cl)c(-c2ccc(C(=O)N3CCCN4CCC[C@H]4C3)cc2)c1`, the “% Inhibition” value is given as -1% and the Z score worked out at 0.17.

`C[C@](O)(CNC(=O)Nc1ccccc1C(F)(F)F)C1CC1`: the “% Inhibition” value is reported as -8% and the Z score was determined as 1.4.

`CNc1nc(NCc2nc(C)sc2C)ncc1Br`: the “% Inhibition” value is -11% and the Z score came to 1.65.

Turning to `COCC1(C(=O)NC2CCN(S(=O)(=O)c3ccccc3)CC2)CCC1`, the “% Inhibition” value turned out to be 4% and the Z score was -0.69.

Take `CCc1nnc2n1CCC1(CC2)CCN(C(=O)c2cccnc2C)CC1`: the “% Inhibition” value is reported as -17% and the Z score is given as 1.63.

Take `COCC1(CNC(=O)C[C@@H]2C=CCC2)CCC1`: the “% Inhibition” value is 1% and the Z score is -0.19.

In the case of `Cc1noc(-c2csc(Cc3ccccc3)n2)n1`, the “% Inhibition” value is -3% and the Z score came to 0.62.

On to `Cc1ccc2nc(-c3ccc(F)cc3)c(CNCc3cn(C)nc3C)cc2c1`, for which the “% Inhibition” value came out at 0% and the Z score turned out to be 0.02.

On to `CCc1n[nH]c(C(=O)N[C@@H](CCO)C2CCCCC2)c1Br`, for which the “% Inhibition” value is on record as 30% and the Z score is reported as -3.42.

Turning to `Cc1ccc(N2C(=O)CN(S(=O)(=O)c3ccccc3)C[C@@]2(C)C(=O)NC2CCCC2)cc1`, the “% Inhibition” value came out at 0% and the Z score was -0.04.

As for `C[C@H](C(=O)N(C)c1ncccn1)C1CC1`, the “% Inhibition” value is listed as -9% and the Z score turned out to be 0.88.

`N#Cc1ccc(C(=O)N2CCc3n[nH]c(=O)n3CC2)cc1`: the “% Inhibition” value is -1% and the Z score is recorded as 0.14.

Consider `CCOc1cccc(C(=O)N2C[C@@H](c3nc(C)no3)O[C@@H](C)C2)c1`, for which the “% Inhibition” value is 8% and the Z score is recorded as -0.83.

Turning to `Cc1ccccc1CC(C1CCN(C(=O)C(C)Oc2ccccc2)CC1)N(C)C(=O)Cn1cccn1` (stereo unspecified), the “% Inhibition” value is -5% and the Z score was 0.91.

With `O=C1CC[C@H](NCc2cnc(C3CC3)o2)C2(CCC2)N1`, the “% Inhibition” value is -3% and the Z score worked out at 0.54.

Turning to `Cc1cccc(OCC(=O)N[C@H]2CCc3[nH]c4cc(Cl)cc(Cl)c4c3C2)c1C`, the “% Inhibition” value was 4% and the Z score is given as -0.78.

Take `CN1CCc2ncnc(N3CCN(Cc4ccco4)CC3)c2C1`: the “% Inhibition” value is -13% and the Z score is reported as 2.11.

As to `Cn1cnnc1Cn1ccc2ccn(Cc3ccccc3F)c2c1=O`, the “% Inhibition” value is listed as -8% and the Z score is listed as 1.02.

Consider `CCOCCCNC(=O)CN1C(=O)CCn2nc(-c3cn(C)c4ccccc34)cc21`, for which the “% Inhibition” value is recorded as 0% and the Z score came out at 0.

`CCOc1cccc(C2Nc3ccc(F)cc3[C@H]3OCCC[C@@H]23)c1OC` (stereo partly specified): the “% Inhibition” value is given as -9% and the Z score was determined as 1.34.

Regarding `O=S1(=O)CCC[C@H](Cn2cc(-c3ccc4c(c3)CCC4)nn2)C1`, the “% Inhibition” value was -3% and the Z score is listed as 0.34.

For `CN1CC(=O)N2CCN(Cc3cccc(-c4ccco4)c3)C[C@H]2C1=O`, the “% Inhibition” value is -4% and the Z score worked out at 0.7.

With `CCCc1nc(C(=O)NCc2c(C)n[nH]c2C)cs1`, the “% Inhibition” value was -4% and the Z score amounted to 0.78.
